Experimental data published in the supplement of paper PMC8728848.
Some of the results follow.

Legend:
Experiment in all cases: glycan array binding signal (z-score within array); higher = stronger binding
Conditions in all cases: glycan notation: IUPAC condensed, linker removed
[1] = target: GalNAc3S(b1-4)[Fuc(a1-3)]GlcNAc
Method in brief: (§1)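 Columns mapping to the same glycan were averaged after glycan names were converted to IUPAC-condensed notation. The data come from 3228 arrays in the Consortium for Functional Glycomics database, limited to those with an available protein sequence. Binding is reported as a within-array Z-score averaged across arrays of one protein sequence and across linkers.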

GalNAc4S6S(b1-4)GlcNAc = target: GalNAc4S6S(b1-4)GlcNAc
Method in brief: as §1

GalNAc6S(b1-4)GlcNAc = target: GalNAc6S(b1-4)GlcNAc
Method in brief: as §1

Glc(a1-4)Glc = target: Glc(a1-4)Glc
Method in brief: as §1

[2] = target: Glc(a1-4)Glc(a1-4)Glc(a1-4)Glc
Method in brief: as §1

Glc(a1-6)Glc(a1-6)Glc = target: Glc(a1-6)Glc(a1-6)Glc
Method in brief: as §1

[3] = target: Glc(a1-6)Glc(a1-6)Glc(a1-6)Glc
Method in brief: as §1

Glc(b1-4)Glc = target: Glc(b1-4)Glc
Method in brief: as §1

Glc(b1-6)Glc = target: Glc(b1-6)Glc
Method in brief: as §1

GlcA(b1-3)Gal = target: GlcA(b1-3)Gal
Method in brief: as §1

GlcA(b1-3)GlcNAc = target: GlcA(b1-3)GlcNAc
Method in brief: as §1

GlcA(b1-6)Gal = target: GlcA(b1-6)Gal
Method in brief: as §1

[4] = target: GlcA3S(b1-3)Gal(b1-4)GlcNAc(b1-2)Man
Method in brief: as §1

[5] = target: GlcA3S(b1-3)Gal(b1-4)GlcNAc(b1-3)Gal(b1-4)Glc
Method in brief: as §1

[6] = target: GlcNAc(a1-3)Gal(b1-4)GlcNAc
Method in brief: as §1

[7] = target: GlcNAc(a1-4)Gal(b1-3)GlcNAc
Method in brief: as §1

[8] = target: GlcNAc(a1-4)Gal(b1-4)GalNAc
Method in brief: as §1

[9] = target: GlcNAc(a1-4)Gal(b1-4)GlcNAc
Method in brief: as §1

[10] = target: GlcNAc(a1-4)Gal(b1-4)GlcNAc(b1-3)Gal(b1-4)Glc
Method in brief: as §1

[11] = target: GlcNAc(a1-4)Gal(b1-4)GlcNAc(b1-3)Gal(b1-4)GlcNAc
Method in brief: as §1

[12] = target: GlcNAc(a1-4)Gal(b1-4)GlcNAc(b1-3)Gal(b1-4)GlcNAc(b1-3)Gal(b1-4)GlcNAc
Method in brief: as §1

[13] = target: GlcNAc(a1-4)Gal(b1-4)GlcNAc(b1-3)Gal(b1-4)[Fuc(a1-3)]GlcNAc(b1-3)Gal(b1-4)[Fuc(a1-3)]GlcNAc
Method in brief: as §1

[14] = target: GlcNAc(a1-6)Gal(b1-4)GlcNAc
Method in brief: as §1

[15] = target: GlcNAc(b1-2)Gal(b1-3)GalNAc
Method in brief: as §1

[16] = target: GlcNAc(b1-2)Man(a1-3)[GlcNAc(b1-2)Man(a1-6)]Man(b1-4)GlcNAc(b1-4)GlcNAc
Method in brief: as §1

[17] = target: GlcNAc(b1-2)Man(a1-3)[GlcNAc(b1-2)Man(a1-6)]Man(b1-4)GlcNAc(b1-4)[Fuc(a1-6)]GlcNAc
Method in brief: as §1

[18] = target: GlcNAc(b1-2)Man(a1-3)[GlcNAc(b1-4)][GlcNAc(b1-2)Man(a1-6)]Man(b1-4)GlcNAc(b1-4)GlcNAc
Method in brief: as §1

[19] = target: GlcNAc(b1-2)Man(a1-3)[GlcNAc(b1-4)][GlcNAc(b1-2)Man(a1-6)]Man(b1-4)GlcNAc(b1-4)[Fuc(a1-6)]GlcNAc
Method in brief: as §1

[20] = target: GlcNAc(b1-2)[GlcNAc(b1-4)]Man(a1-3)[GlcNAc(b1-2)Man(a1-6)]Man(b1-4)GlcNAc(b1-4)GlcNAc
Method in brief: as §1

[21] = target: GlcNAc(b1-2)[GlcNAc(b1-4)]Man(a1-3)[GlcNAc(b1-4)][GlcNAc(b1-2)Man(a1-6)]Man(b1-4)GlcNAc(b1-4)GlcNAc
Method in brief: as §1

[22] = target: GlcNAc(b1-2)[GlcNAc(b1-4)]Man(a1-3)[GlcNAc(b1-4)][GlcNAc(b1-2)[GlcNAc(b1-6)]Man(a1-6)]Man(b1-4)GlcNAc(b1-4)GlcNAc
Method in brief: as §1

[23] = target: GlcNAc(b1-2)[GlcNAc(b1-4)]Man(a1-3)[GlcNAc(b1-4)][GlcNAc(b1-2)[GlcNAc(b1-6)]Man(a1-6)]Man(b1-4)GlcNAc(b1-4)[Fuc(a1-6)]GlcNAc
Method in brief: as §1

[24] = target: GlcNAc(b1-2)[GlcNAc(b1-6)]Man(a1-6)[GlcNAc(b1-2)Man(a1-3)]Man(b1-4)GlcNAc(b1-4)GlcNAc
Method in brief: as §1

[25] = target: GlcNAc(b1-2)[GlcNAc(b1-6)]Man(a1-6)[GlcNAc(b1-2)Man(a1-3)]Man(b1-4)GlcNAc(b1-4)[Fuc(a1-6)]GlcNAc
Method in brief: as §1

[26] = target: GlcNAc(b1-2)[GlcNAc(b1-6)]Man(a1-6)[GlcNAc(b1-4)][GlcNAc(b1-2)Man(a1-3)]Man(b1-4)GlcNAc(b1-4)GlcNAc
Method in brief: as §1

GlcNAc(b1-3)Fuc = target: GlcNAc(b1-3)Fuc
Method in brief: as §1

GlcNAc(b1-3)Gal = target: GlcNAc(b1-3)Gal
Method in brief: as §1

[27] = target: GlcNAc(b1-3)Gal(b1-3)GalNAc
Method in brief: as §1

B1: SBD-G4S3-Fc (protein)
chain: MASIPSSASVQLDSYNYDGSTFSGKIYVKNIAYSKKVTVVYADGSDNWNNNGNIIAASFSGPISGSNYEYWTFSASVKGIKEFYIKYEVSGKTYYDNNNSANYQVSTGGGGSGGGGSGGGGSEFVPRDCGCKPCICTVPEVSSVFIFPPKPKDVLTITLTPKVTCVVVDISKDDPEVQFSWFVDDVEVHTAQTQPREEQFNSTFRSVSELPIMHQDWLNGKEFKCRVNSAAFPAPIEKTISKTKGRPKAPQVYTIPPPKEQMAKDKVSLTCMITDFFPEDITVEWQWNGQPAENYKNTQPIMDTDGSYFVYSKLNVQKSNWEAGNTFTCSVLHEGLHNHHTEKSLSHSPGAA
[1]
  glycan array binding signal (z-score): -0.377
GalNAc4S6S(b1-4)GlcNAc
  glycan array binding signal (z-score): -0.46
GalNAc6S(b1-4)GlcNAc
  glycan array binding signal (z-score): -0.097
Glc(a1-4)Glc
  glycan array binding signal (z-score): 0.07
[2]
  glycan array binding signal (z-score): 12.1
Glc(a1-6)Glc(a1-6)Glc
  glycan array binding signal (z-score): -0.359
[3]
  glycan array binding signal (z-score): -0.443
Glc(b1-4)Glc
  glycan array binding signal (z-score): -0.11
Glc(b1-6)Glc
  glycan array binding signal (z-score): 0.309
GlcA(b1-3)Gal
  glycan array binding signal (z-score): -0.464
GlcA(b1-3)GlcNAc
  glycan array binding signal (z-score): 0.339
GlcA(b1-6)Gal
  glycan array binding signal (z-score): -0.04
[4]
  glycan array binding signal (z-score): -0.355
[5]
  glycan array binding signal (z-score): -0.042
[6]
  glycan array binding signal (z-score): -0.372
[7]
  glycan array binding signal (z-score): 0.065
[8]
  glycan array binding signal (z-score): -0.294
[9]
  glycan array binding signal (z-score): -0.159
[10]
  glycan array binding signal (z-score): -0.301
[11]
  glycan array binding signal (z-score): -0.415
[12]
  glycan array binding signal (z-score): -0.285
[13]
  glycan array binding signal (z-score): 0.231
[14]
  glycan array binding signal (z-score): -0.263
[15]
  glycan array binding signal (z-score): -0.34
[16]
  glycan array binding signal (z-score): -0.096
[17]
  glycan array binding signal (z-score): 0.031
[18]
  glycan array binding signal (z-score): 0.004
[19]
  glycan array binding signal (z-score): -0.315
[20]
  glycan array binding signal (z-score): -0.109
[21]
  glycan array binding signal (z-score): -0.26
[22]
  glycan array binding signal (z-score): -0.045
[23]
  glycan array binding signal (z-score): -0.304
[24]
  glycan array binding signal (z-score): -0.075
[25]
  glycan array binding signal (z-score): -0.217
[26]
  glycan array binding signal (z-score): -0.17
GlcNAc(b1-3)Fuc
  glycan array binding signal (z-score): -0.309
GlcNAc(b1-3)Gal
  glycan array binding signal (z-score): -0.406
[27]
  glycan array binding signal (z-score): -0.128
